The record followed here is PMC11876325.

Sequences of proteins named here, by UniProt entry; tags and fusion partners are left off.
UniProt P25454: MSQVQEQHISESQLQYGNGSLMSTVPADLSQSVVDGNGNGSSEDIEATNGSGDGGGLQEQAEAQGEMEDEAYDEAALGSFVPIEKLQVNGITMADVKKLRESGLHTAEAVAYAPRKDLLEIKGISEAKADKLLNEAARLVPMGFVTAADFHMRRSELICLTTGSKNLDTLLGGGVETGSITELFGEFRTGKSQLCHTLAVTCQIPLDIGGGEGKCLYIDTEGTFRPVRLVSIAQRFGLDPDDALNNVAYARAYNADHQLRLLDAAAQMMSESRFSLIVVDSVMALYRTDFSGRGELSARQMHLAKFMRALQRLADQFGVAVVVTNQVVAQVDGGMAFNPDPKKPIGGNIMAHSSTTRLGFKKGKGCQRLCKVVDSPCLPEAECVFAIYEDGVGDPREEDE

Common to all, as to experiment: two-hybrid; GAL4 DNA-binding domain (pGBD) and GAL4 activation domain (pGAD) fusions co-transformed into PJ69-4α (also its rad51∆, rad55∆, csm2∆, shu1∆ and shu2∆ derivatives); growth on SC-L-W-H, 2-3 days, 30 °C
Assay [1] addresses T1, Psy3 (pGBD Psy3) (S. cerevisiae) (UniProt Q12318).
T1 sequence: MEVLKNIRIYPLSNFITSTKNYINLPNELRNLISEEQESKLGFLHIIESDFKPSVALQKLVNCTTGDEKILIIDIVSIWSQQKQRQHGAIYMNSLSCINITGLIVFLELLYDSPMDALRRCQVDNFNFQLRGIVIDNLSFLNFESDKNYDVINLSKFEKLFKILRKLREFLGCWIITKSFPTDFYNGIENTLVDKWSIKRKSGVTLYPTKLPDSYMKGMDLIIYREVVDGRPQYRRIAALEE

Assay [2] has as its target Rad51 (two-hybrid fusion) (S. cerevisiae) (UniProt P25454).
Assay [3] has as its target T2, Rad55 (pGBD Rad55) (S. cerevisiae) (UniProt P38953).
T2 sequence: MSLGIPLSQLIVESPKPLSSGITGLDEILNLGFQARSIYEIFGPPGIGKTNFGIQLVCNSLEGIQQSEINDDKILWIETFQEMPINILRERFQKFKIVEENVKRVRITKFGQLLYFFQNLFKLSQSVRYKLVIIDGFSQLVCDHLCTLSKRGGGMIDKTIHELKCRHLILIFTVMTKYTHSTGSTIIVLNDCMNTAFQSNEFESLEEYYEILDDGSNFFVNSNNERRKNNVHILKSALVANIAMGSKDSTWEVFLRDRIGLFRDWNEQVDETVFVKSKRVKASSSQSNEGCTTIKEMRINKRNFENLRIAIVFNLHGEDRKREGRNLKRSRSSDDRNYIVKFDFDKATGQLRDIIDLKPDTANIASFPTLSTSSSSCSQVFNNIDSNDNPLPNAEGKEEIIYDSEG

Assay [4] has as its target T3, Rad57 (pGBD Rad57) (S. cerevisiae) (UniProt P25301).
T3 sequence: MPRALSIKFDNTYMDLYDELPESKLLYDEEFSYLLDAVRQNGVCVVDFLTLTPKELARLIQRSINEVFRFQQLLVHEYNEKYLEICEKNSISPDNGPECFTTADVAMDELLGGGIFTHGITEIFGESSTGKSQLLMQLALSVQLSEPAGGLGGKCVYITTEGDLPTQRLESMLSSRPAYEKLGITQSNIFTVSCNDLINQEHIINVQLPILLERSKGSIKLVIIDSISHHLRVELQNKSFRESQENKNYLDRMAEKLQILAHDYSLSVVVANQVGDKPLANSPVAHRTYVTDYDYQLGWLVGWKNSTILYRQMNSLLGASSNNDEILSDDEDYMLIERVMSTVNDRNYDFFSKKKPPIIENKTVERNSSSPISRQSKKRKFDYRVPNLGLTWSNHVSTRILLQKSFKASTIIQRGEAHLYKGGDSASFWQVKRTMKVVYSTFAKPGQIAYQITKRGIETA

No constants are given. Whether binding was seen depends on the method and setting. Some entries that bind do so weakly or less than the wild type.

B1: Orc3 (pGAD ORC3) (protein, UniProt P54790 1-616)
chain: MSDLNQSKKMNVSEFADAQRSHYTVYPSLPQSNKNDKHIPFVKLLSGKESEVNVEKRWELYHQLHSHFHDQVDHIIDNIEADLKAEISDLLYSETTQKRRCFNTIFLLGSDSTTKIELKDESSRYNVLIELTPKESPNVRMMLRRSMYKLYSAADAEEHPTIKYEDINDEDGDFTEQNNDVSYDLSLVENFKRLFGKDLAMVFNFKDVDSINFNTLDNFIILLKSAFKYDHVKISLIFNINTNLSNIEKNLRQSTIRLLKRNYHKLDVSSNKGFKYGNQIFQSFLDTVDGKLNLSDRFVEFILSKMANNTNHNLQLLTKMLDYSLMSYFFQNAFSVFIDPVNVDFLNDDYLKILSRCPTFMFFVEGLIKQHAPADEILSLLTNKNRGLEEFFVEFLVRENPINGHAKFVARFLEEELNITNFNLIELYHNLLIGKLDSYLDRWSACKEYKDRLHFEPIDTIFQELFTLDNRSGLLTQSIFPSYKSNIEDNLLSWEQVLPSLDKENYDTLSGDLDKIMAPVLGQLFKLYREANMTINIYDFYIAFRETLPKEEILNFIRKDPSNTKLLELAETPDAFDKVALILFMQAIFAFENMGLIKFQSTKSYDLVEKCVWRGI
Regarding B1, the binding entry is given as “binds” in assay [1], “no binding” in assay [2], “no binding” in assay [3] and “no binding” in assay [4].

B2: Orc5 (pGAD ORC5) (protein, UniProt P50874 1-479)
chain: MNVTTPEVAFREYQTNCLASYISADPDITPSNLILQGYSGTGKTYTLKKYFNANPNLHAVWLEPVELVSWKPLLQAIARTVQYKLKTLYPNIPTTDYDPLQVEEPFLLVKTLHNIFVQYESLQEKTCLFLILDGFDSLQDLDAALFNKYIKLNELLPKDSKINIKFIYTMLETSFLQRYSTHCIPTVMFPRYNVDEVSTILVMSRCGELMEDSCLRKRIIEEQITDCTDDQFQNVAANFIHLIVQAFHSYTGNDIFALNDLIDFKWPKYVSRITKENIFEPLALYKSAIKLFLSTDDNLSENGQGESAITTNRDDLENSQTYDLSIISKYLLIASYICSYLEPRYDASIFSRKTRIIQGRAAYGRRKKKEVNPRYLQPSLFAIERLLAIFQAIFPIQGKAESGSLSALREESLMKANIEVFQNLSELHTLKLIATTMNKNIDYLSPKVRWKVNVPWEIIKEISESVHFNISDYFSDIHE
As for B2, the binding result in assay [1] was “binds”; in assay [3], “no binding”; in assay [4] it was “no binding”.

B3: Mcm5 (pGAD Mcm5) (protein, UniProt P29496 1-775)
chain: MSFDRPEIYSAPVLQGESPNDDDNTEIIKSFKNFILEFRLDSQFIYRDQLRNNILVKNYSLTVNMEHLIGYNEDIYKKLSDEPSDIIPLFETAITQVAKRISILSRAQSANNNDKDPENTSMDTDSLLLNSLPTFQLILNSNANQIPLRDLDSEHVSKIVRLSGIIISTSVLSSRATYLSIMCRNCRHTTSITINNFNSITGNTVSLPRSCLSTIESESSMANESNIGDESTKKNCGPDPYIIIHESSKFIDQQFLKLQEIPELVPVGEMPRNLTMTCDRYLTNKVIPGTRVTIVGIYSIYNSKNGAGSGRSGGGNGGSGVAIRTPYIKILGIQSDVETSSIWNSVTMFTEEEEEEFLQLSRNPKLYEILTNSIAPSIFGNEDIKKAIVCLLMGGSKKILPDGMRLRGDINVLLLGDPGTAKSQLLKFVEKVSPIAVYTSGKGSSAAGLTASVQRDPMTREFYLEGGAMVLADGGVVCIDEFDKMRDEDRVAIHEAMEQQTISIAKAGITTVLNSRTSVLAAANPIYGRYDDLKSPGDNIDFQTTILSRFDMIFIVKDDHNEERDISIANHVINIHTGNANAMQNQQEENGSEISIEKMKRYITYCRLKCAPRLSPQAAEKLSSNFVTIRKQLLINELESTERSSIPITIRQLEAIIRITESLAKLELSPIAQERHVDEAIRLFQASTMDAASQDPIGGLNQASGTSLSEIRRFEQELKRRLPIGWSTSYQTLRREFVDTHRFSQLALDKALYALEKHETIQLRHQGQNIYRSGV
As to B3, the binding result is reported as “binds” in assay [1], “binds weakly” in assay [2], “no binding” in assay [3] and “no binding” in assay [4].

B4: Orc2 (pGAD ORC2) (protein, UniProt P32833 1-620)
chain: MLNGEDFVEHNDILSSPAKSRNVTPKRVDPHGERQLRRIHSSKKNLLERISLVGNERKNTSPDPALKPKTPSKAPRKRGRPRKIQEELTDRIKKDEKDTISSKKKRKLDKDTSGNVNEESKTSNNKQVMEKTGIKEKREREKIQVATTTYEDNVTPQTDDNFVSNSPEPPEPATPSKKSLTTNHDFTSPLKQIIMNNLKEYKDSTSPGKLTLSRNFTPTPVPKNKKLYQTSETKSASSFLDTFEGYFDQRKIVRTNAKSRHTMSMAPDVTREEFSLVSNFFNENFQKRPRQKLFEIQKKMFPQYWFELTQGFSLLFYGVGSKRNFLEEFAIDYLSPKIAYSQLAYENELQQNKPVNSIPCLILNGYNPSCNYRDVFKEITDLLVPAELTRSETKYWGNHVILQIQKMIDFYKNQPLDIKLILVVHNLDGPSIRKNTFQTMLSFLSVIRQIAIVASTDHIYAPLLWDNMKAQNYNFVFHDISNFEPSTVESTFQDVMKMGKSDTSSGAEGAKYVLQSLTVNSKKMYKLLIETQMQNMGNLSANTGPKRGTQRTGVELKLFNHLCAADFIASNEIALRSMLREFIEHKMANITKNNSGMEIIWVPYTYAELEKLLKTVLNTL
Regarding B4, the binding entry in assay [1] is “binds”; in assay [2] it was “no binding”; in assay [3], “no binding”; in assay [4], “no binding”.

B5: Orc4 (pGAD ORC4) (protein, UniProt P54791 1-529)
chain: MTISEARLSPQVNLLPIKRHSNEEVEETAAILKKRTIDNEKCKDSDPGFGSLQRRLLQQLYGTLPTDEKIIFTYLQDCQQEIDRIIKQSIIQKESHSVILVGPRQSYKTYLLDYELSLLQQSYKEQFITIRLNGFIHSEQTAINGIATQLEQQLQKIHGSEEKIDDTSLETISSGSLTEVFEKILLLLDSTTKTRNEDSGEVDRESITKITVVFIFDEIDTFAGPVRQTLLYNLFDMVEHSRVPVCIFGCTTKLNILEYLEKRVKSRFSQRVIYMPQIQNLDDMVDAVRNLLTVRSEISPWVSQWNETLEKELSDPRSNLNRHIRMNFETFRSLPTLKNSIIPLVATSKNFGSLCTAIKSCSFLDIYNKNQLSNNLTGRLQSLSDLELAILISAARVALRAKDGSFNFNLAYAEYEKMIKAINSRIPTVAPTTNVGTGQSTFSIDNTIKLWLKKDVKNVWENLVQLDFFTEKSAVGLRDNATAAFYASNYQFQGTMIPFDLRSYQMQIILQELRRIIPKSNMYYSWTQL
Turning to B5, the binding entry in assay [1] was “binds”; in assay [2], “no binding”; in assay [3], “no binding”; in assay [4] it was “no binding”.

B6: Orc1 (pGAD ORC1) (protein, UniProt P54784 1-914)
chain: MAKTLKDLQGWEIITTDEQGNIIDGGQKRLRRRGAKTEHYLKRSSDGIKLGRGDSVVMHNEAAGTYSVYMIQELRLNTLNNVVELWALTYLRWFEVNPLAHYRQFNPDANILNRPLNYYNKLFSETANKNELYLTAELAELQLFNFIRVANVMDGSKWEVLKGNVDPERDFTVRYICEPTGEKFVDINIEDVKAYIKKVEPREAQEYLKDLTLPSKKKEIKRGPQKKDKATQTAQISDAETRATDITDNEDGNEDESSDYESPSDIDVSEDMDSGEISADELEEEEDEEEDEDEEEKEARHTNSPRKRGRKIKLGKDDIDASVQPPPKKRGRKPKDPSKPRQMLLISSCRANNTPVIRKFTKKNVARAKKKYTPFSKRFKSIAAIPDLTSLPEFYGNSSELMASRFENKLKTTQKHQIVETIFSKVKKQLNSSYVKEEILKSANFQDYLPARENEFASIYLSAYSAIESDSATTIYVAGTPGVGKTLTVREVVKELLSSSAQREIPDFLYVEINGLKMVKPTDCYETLWNKVSGERLTWAASMESLEFYFKRVPKNKKKTIVVLLDELDAMVTKSQDIMYNFFNWTTYENAKLIVIAVANTMDLPERQLGNKITSRIGFTRIMFTGYTHEELKNIIDLRLKGLNDSFFYVDTKTGNAILIDAAGNDTTVKQTLPEDVRKVRLRMSADAIEIASRKVASVSGDARRALKVCKRAAEIAEKHYMAKHGYGYDGKTVIEDENEEQIYDDEDKDLIESNKAKDDNDDDDDNDGVQTVHITHVMKALNETLNSHVITFMTRLSFTAKLFIYALLNLMKKNGSQEQELGDIVDEIKLLIEVNGSNKFVMEIAKTLFQQGSDNISEQLRIISWDFVLNQLLDAGILFKQTMKNDRICCVKLNISVEEAKRAMNEDETLRNL
Regarding B6, the binding result in assay [1] is “binds”; in assay [3], “no binding”; in assay [4], “no binding”.
